120 sequences from the supplement of paper PMC10126150 can be followed below.

The subject of this data set is ATP. The data set can be described thus: switch fluorescence ratio, 500 uM ATP over buffer (Cy3 cluster intensity, sum of 5 cycles each) (fold (ratio)); higher = stronger signal-on switching upon ATP binding; sequences stand for … in TCGTCGGCAGCGTCAGATGTGTATAAGAGACAGTTTTTTTTTTTTTTTTTTTTTTTTT…TC. The following applies: aptamer strand: ATP DNA aptamer (quencher-CACCTGGGGGAGTATTGCGGAGGAAGG + anchor), 100 nM annealed; ATP concentration: 500 uM; one replicate. In outline: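 Values give the fluorescence ratio for each switch-domain sequence, averaged from per-cluster ratios of summed target-cycle to summed buffer-cycle Cy3 intensity. The Cy3-labelled switching-strand clusters sat on a modified Illumina MiSeq flow-cell, were annealed to 100 nM quencher-labelled ATP aptamer, and were imaged in selection buffer, then after 15 min with 500 uM ATP at 22 °C. Five cycles ran with NaOH stripping and re-annealing between them, and clusters outside 100-1000 RFU were excluded.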

Sequences with one replicate were seen in a single cluster, so their values are uncertain.
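Note: ATP exposure 15 min at 22 °C before imaging.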

For GGGAATGGTA, the switch fluorescence ratio came out at 0.962.

TGTGTGGCGG: the switch fluorescence ratio was 0.964. Then TTTGCGGAGT, with 1.06. As for GGACGGAACT, the switch fluorescence ratio was determined as 1.07. With AGCTGGGGAG, the switch fluorescence ratio is 1. Then TCGCCCTCGC, with 1.12. Then TAGTGCAGCC, with 1.08; and GGTAGATGGG, with 0.947; and TTAGTTGCTA, with 1.02. Then TCACCATTA, with 1.01.

In the case of GTTAGGGTT, the switch fluorescence ratio was 1.01. Then CGTAATCAAC, with 1.72; and CGACTCGGTA, with 1.07; and AGATATGTCC, with 1.06.

In the case of AGAGTAAAA, the switch fluorescence ratio is 1.11. Then AACCAGGCTG, with 1.07. Consider GCCGGAAAAT, for which the switch fluorescence ratio was 0.994. Then AGGTAGGAGC, with 1.04.

With TTTTCTTCAC, the switch fluorescence ratio was 1.04. As for CTTGTAATAG, the switch fluorescence ratio was determined as 1.4. On to GAGGCCTAAA, for which the switch fluorescence ratio came out at 0.987. Then ATAGCACTGT, with 1.06. Consider CCCGAGCACT, for which the switch fluorescence ratio stood at 3. In the case of TGATGACATC, the switch fluorescence ratio turned out to be 0.975.

GTATTGGCAA: the switch fluorescence ratio is 1.

For the sequence CGTTCAACA, the switch fluorescence ratio was 0.979. Then GCGCCGCAGT, with 3.97. Then ATGCGTAGAG, with 1.02; and CGGTAGTCTT, with 0.909; and CACACATATT, with 1.07.

GAGGCTATTA: the switch fluorescence ratio came out at 1.04.

GGTTGCGGAC: the switch fluorescence ratio stood at 1.03. Then CATTCGACAG, with 1.04; and AGCATTCCGC, with 1.04.

For the sequence AATCGGGGAC, the switch fluorescence ratio worked out at 0.957. Then TTATCTGGT, with 1.11; and TCTAGGTGCT, with 1.06; and CGCCTCTGCC, with 1.35.

As to CCATGTAAT, the switch fluorescence ratio came out at 1.03. On to CATGGTGGTA, for which the switch fluorescence ratio was 0.99. Then CTTAGTGATT, with 1; and ATCGAGCGTC, with 1. Then CGTTTAGGCC, with 1.02. Then GGGGGAGC, with 0.961. For GTTACTGGGC, the switch fluorescence ratio was found to be 1.09. Then CGATTCGTGA, with 0.984.

Regarding CACGATTAAC, the switch fluorescence ratio came out at 1.21. Then CTGAAAGGAG, with 0.961; and ATCAGGTCTG, with 1.02; and CCGGCAGCTT, with 4.23. Then GCAGATGGGG, with 1.03; and TCCTGATTAA, with 0.983; and GGGTATCTGG, with 0.912. Then ATGTTACTCT, with 1; and GTATCATTGA, with 0.991; and CCGGCGCGGA, with 1.59. As to AGCTGGTGAA, the switch fluorescence ratio was found to be 0.981. Then GTGTAACGGA, with 1.04; and TATCAGCCTG, with 1.03; and CTAGTCAGGG, with 1. Turning to TTAGGGGTAG, the switch fluorescence ratio is 0.998. On to TTTATCGTGT, for which the switch fluorescence ratio stood at 0.977. Take AGTTTTACGG: the switch fluorescence ratio came out at 0.972.

Consider AGCCTTAATG, for which the switch fluorescence ratio is 0.954. Then GGCCAAGCTT, with 0.999; and GAGTAAAACC, with 1.06; and GTCAGATAAC, with 0.992. For TCGGGCCAGA, the switch fluorescence ratio came to 0.969. Regarding TGAAAACTTC, the switch fluorescence ratio came to 1.04. TGCTTCCGAG: the switch fluorescence ratio amounted to 2.75.

Regarding GTAAAAAAGC, the switch fluorescence ratio was found to be 0.975. Then TCCACGATCC, with 1.28. In the case of TTAGCCCGAG, the switch fluorescence ratio turned out to be 0.982. Then GCTTTTGACT, with 1; and TAGGGGGG, with 0.993; and AAAGGTAGGT, with 0.997.

Take GGGTTCTACC: the switch fluorescence ratio came out at 0.994. Then CTATGTGTTC, with 1.03; and CCCATTTCTG, with 0.982. Then ACGATGCTGT, with 1.09; and GCCAAGCCCG, with 0.972. Consider TGCGGTAACT, for which the switch fluorescence ratio is 0.955.

For the sequence GGCGGGAAGG, the switch fluorescence ratio turned out to be 0.969. Then CTCGCTGCTT, with 0.979. AGTTCGGGAT: the switch fluorescence ratio was 0.976.

Regarding TGAGTGGGCA, the switch fluorescence ratio stood at 1.02.

Take CCCGTATTTG: the switch fluorescence ratio was 1.01.

In the case of TGTCTAATTG, the switch fluorescence ratio was 0.985. Then CCACATATAG, with 1.4; and TAGCGTGATT, with 0.988. Then AGCACGCTTC, with 1.05; and GGCGGAAGGT, with 1.01. Then GCTTTGGAAA, with 0.946. For CATGCCTGGT, the switch fluorescence ratio was 0.996. Then TACGCTTGTG, with 0.995.

As for TTACTGGCCA, the switch fluorescence ratio is 1.03.

With CGGCTCGTAA, the switch fluorescence ratio turned out to be 1.22.

Regarding CCCCGGGCG, the switch fluorescence ratio came to 1.08.

With TAGCTGACTT, the switch fluorescence ratio was 0.986.

As for GCATCGAACT, the switch fluorescence ratio was 1.04.

As for ACGGACGTAT, the switch fluorescence ratio came out at 1.01. Then GTATTAAAGA, with 0.974; and GTGGGCGCTG, with 0.975; and TAACAGAATG, with 1.07. Then CGCCTTTACG, with 1.07; and CAAATCAAGC, with 0.981; and GCCCTGCCCG, with 1.03. With ATCTCTCACA, the switch fluorescence ratio is 0.989.

As to GCCAGTTCAC, the switch fluorescence ratio came to 1.02.

For the sequence AAGGGGGA, the switch fluorescence ratio came out at 1.02.

Take ACTGGCCGCT: the switch fluorescence ratio is 1.05.

For TTCATGATAG, the switch fluorescence ratio amounted to 1.01. Then CTGTTGGT, with 0.977. With TGCAGTTGGC, the switch fluorescence ratio was 1.04. Then CACCCGATA, with 1.06. Then CTTTACGGCT, with 1.1. Then ACAAGGGCCC, with 1.02; and CGTTTGAGCA, with 0.98. CTACCGTGTC: the switch fluorescence ratio was determined as 1.04. Consider TAGTTTAGAG, for which the switch fluorescence ratio was 0.946.
